Assay results published in the supplement of paper PMC3334620.
The full ranking holds about 33,000 sequences; the median of “E-score (-0.5 to 0.5)” is about -0.043, and the highest 2% start at about 0.37. This is one part of the list.

molecular target: T1, Upc2 (UniProt Q12151); assay: PBM E-score (8-mer binding enrichment) (E-score (-0.5 to 0.5)); higher = stronger / more preferred TF binding; most listed sequences are background and not binding sites; details: protein concentration: 200 nM; construct: GST-full length
T1 sequence: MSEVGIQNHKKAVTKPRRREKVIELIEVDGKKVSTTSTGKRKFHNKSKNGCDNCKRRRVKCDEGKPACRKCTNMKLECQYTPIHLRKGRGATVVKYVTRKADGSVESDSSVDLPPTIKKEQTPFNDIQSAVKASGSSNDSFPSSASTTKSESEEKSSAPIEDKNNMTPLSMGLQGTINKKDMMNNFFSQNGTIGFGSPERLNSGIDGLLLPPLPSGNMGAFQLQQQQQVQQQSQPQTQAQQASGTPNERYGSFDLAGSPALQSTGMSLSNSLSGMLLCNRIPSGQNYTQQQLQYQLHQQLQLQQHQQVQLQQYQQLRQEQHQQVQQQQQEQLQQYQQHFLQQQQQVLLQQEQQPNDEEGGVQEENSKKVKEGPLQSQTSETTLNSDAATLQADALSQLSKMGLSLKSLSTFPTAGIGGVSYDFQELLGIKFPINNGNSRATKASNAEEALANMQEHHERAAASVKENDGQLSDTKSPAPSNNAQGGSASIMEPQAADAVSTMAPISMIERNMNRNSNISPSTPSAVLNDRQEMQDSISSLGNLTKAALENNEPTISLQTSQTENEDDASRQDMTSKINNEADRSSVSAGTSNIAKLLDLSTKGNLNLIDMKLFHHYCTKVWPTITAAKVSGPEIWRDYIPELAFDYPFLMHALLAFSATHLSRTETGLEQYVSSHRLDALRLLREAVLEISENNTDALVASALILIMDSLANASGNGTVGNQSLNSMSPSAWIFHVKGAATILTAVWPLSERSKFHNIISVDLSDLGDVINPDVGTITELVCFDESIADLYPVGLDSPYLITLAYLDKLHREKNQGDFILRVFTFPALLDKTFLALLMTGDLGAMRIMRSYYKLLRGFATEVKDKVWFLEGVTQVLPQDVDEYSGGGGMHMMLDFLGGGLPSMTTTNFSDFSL
Procedure: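 Universal 'all 10-mer' protein binding microarrays (Agilent AMADID 015681) probed with GST-tagged S. cerevisiae TFs (full-length or DBD) made by in vitro transcription/translation (PURExpress), about 100-200 nM. Bound TF was detected with fluorescent anti-GST. Each ungapped 8-mer (which stands for itself and its reverse complement) is scored by the PBM enrichment score (E-score), a modified Wilcoxon-Mann-Whitney statistic from -0.5 to +0.5, computed with the Universal PBM Analysis Suite. Scale: above 0.35 generally sequence-specific binding.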

Sequence	PBM E-score
CACAGCGC	-0.304
GTCCTAAC	-0.0822
CAATCGTA	0.4
AAGGGGGG	-0.246
ACTAGGGC	-0.293
CGCCGCCG	-0.0601
ATCCAAAG	-0.0459
CAGTACTG	0.134
ATGGATGC	-0.061
ATTAACCG	0.229
GACTCTAC	0.0781
TACTGGAA	-0.0883
CGGTCTAG	0.0866
GGAGGGCA	-0.22
AAAATACG	0.346
CAATTTCA	-0.1
ACTCGTCA	-0.0246
CTTAGGGA	-0.23
AAGTTAGG	-0.142
AGTGTCAG	-0.0575
ACTCCATC	-0.211
GGACCCTA	-0.202
GCTGCGGA	-0.164
GTGTATCA	-0.0133
CAGCACAC	-0.158

Sequence	PBM E-score
ACAACAAG	0.049
ACGTGCAT	0.0526
CTAGCACA	-0.285
ACTTCCCC	-0.303
TTCGACAA	0.0423
CCCCAACG	-0.107
CGAGTAAC	0.277
GATGTTGC	-0.00714
ACAGACTC	-0.2
GCTGCCAA	-0.145
ATATGGCA	0.0254
CACCCACG	0.178
ACCAGTTA	-0.0947
CGCTGTCA	-0.108
AATCCTCG	0.0686
AGTGTCTC	-0.159
CCGTTTAA	0.466
GTGTGTGA	0.0874
ATGGCAAC	-0.0456
GAATGGTA	-0.118
AAATCGTA	0.383
GTTCTTCA	0.132
CACACAGG	-0.0693
ATGGTAAA	0.0691
CGGAATAA	-0.138

Sequence	PBM E-score
AAGATCGT	0.371
CTTTTTAC	0.194
CACTGCAC	-0.228
AGTTCTTG	-0.0476
TGCACAAA	-0.0779
AGCCATAC	0.279
CCCGGATC	-0.0679
CAGGGTCG	-0.0697
CTCTTTTA	0.241
AAAGATCC	-0.0446
AGGTTCCG	-0.0581
CCAAAGCA	-0.168
AATTACCC	-0.0615
CCAGAACC	-0.129
CAGAATGA	-0.0659
GAAATGAA	0.125
ATCCTTGC	-0.189
AACCATTG	0.0108
ACTACCTA	0.0177
CCCTAGCA	-0.26
GCTCTGCC	-0.233
CGACGAAG	0.201
GTGTAGAA	0.117
CTATAGAC	-0.218
AGCTTGGG	0.0178

Sequence	PBM E-score
GGTTTGCA	0.0633
GGGTTAAC	0.0324
AGCAAACA	0.0526
CAGCGTCA	-0.221
CCAGGTCA	-0.309
CATTGAGA	-0.112
GGATTCCC	-0.161
CGTTCAAA	0.369
CATTGCGA	-0.0248
AGTTCCTG	-0.211
TGGCTCAA	-0.0798
AATCTGAT	-0.248
CCTCTTAC	0.216
CTTTTGTA	0.129
AGCGAGAC	0.151
CTCATGCC	-0.0922
ACGACGGG	0.415
GTGGTGAA	-0.133
TGCAACCA	-0.0356
CCTGGACA	-0.232
CCTAGTAC	0.0299
CTGCACCA	-0.174
CCAGGCAA	-0.145
CACGGGCA	-0.176
CAGTAACC	-0.0715

Sequence	PBM E-score
GGTTATCA	-0.117
AACTTTGT	-0.172
CTTCTGGC	-0.215
ATTCCCCA	-0.185
CGTGGAAG	-0.00238
CGCCTTAA	0.128
GGGGGACA	0.0396
CATTCACG	-0.0631
GGTGTGGA	0.00988
GGACCTAA	0.118
ATCACTTC	-0.0496
CCCTTAAC	0.0417
AGACCCTC	-0.325
ATATAATA	-0.0226
GGGTAACA	0.00245
CACGCGTC	0.0558
CGCCATGC	-0.137
CGCCGTGA	-0.138
CACGGGGC	-0.174
AGAGGTCA	-0.0612
AGCTGACA	-0.132
AGCGGCCT	-0.254
CCGTATTC	0.304
GCTAAGTA	-0.0628
CCTTTGCA	-0.0476

Sequence	PBM E-score
ACAAGGGA	-0.205
ACGCTCGA	0.071
AGTTGTAG	-0.161
GCTGCGCA	-0.215
GCGTCACA	-0.0716
ACGTCGGC	0.0769
CCTCCAAA	0.0217
AGTAAGAG	-0.0488
CACACCGC	-0.0268
AACATAGG	-0.0922
TAAACTGA	0.0405
GATTCTAA	0.0686
AAATCGGA	-0.0167
GTCATTGA	-0.0998
AAGTCCGG	-0.167
ACCGCACA	-0.034
ACCTATTC	0.114
AAAGGCTA	-0.173
ACGGAGCT	0.0658
ATTTTCTG	0.0455
AAGCCCCA	-0.193
ATAACTGC	-0.188
AGCAAGTC	-0.148
ATCTATCG	0.0972
GGACTAAA	-0.0699

Sequence	PBM E-score
CGATCGGC	0.0356
AAAGTCGC	0.118
AATCAGAG	-0.017
CGGACTGA	-0.119
GTAACACA	0.0886
AACAGTAG	-0.00931
CGCCCCTA	-0.066
CAAGAGAA	0.0518
ACGACGTC	0.367
CGTACTGA	0.292
TACGGCCA	0.292
GCGAGAAC	0.159
GCATCCGA	-0.01
AGTCGACC	-0.0977
ATGGGCAG	-0.171
CCCGAAGA	-0.0235
CCAAACGA	0.476
GCCTAGGA	-0.336
CAATTGAG	-0.0204
CTGCTTGC	-0.0297
ACACCCCG	-0.0396
ACAGCACA	0.0988
